Experimental data published in the BET-seq Pho4 binding data (Le et al. 2018).
Some of the results follow. The energies were worked out here from pooled read counts, against the library average; single values are noisy.

Each sequence was assayed against T1, Pho4 (S. cerevisiae) (UniProt P07270) (assay: relative binding free energy (BET-seq); higher = weaker binding). Settings: reference: library average.
T1 sequence: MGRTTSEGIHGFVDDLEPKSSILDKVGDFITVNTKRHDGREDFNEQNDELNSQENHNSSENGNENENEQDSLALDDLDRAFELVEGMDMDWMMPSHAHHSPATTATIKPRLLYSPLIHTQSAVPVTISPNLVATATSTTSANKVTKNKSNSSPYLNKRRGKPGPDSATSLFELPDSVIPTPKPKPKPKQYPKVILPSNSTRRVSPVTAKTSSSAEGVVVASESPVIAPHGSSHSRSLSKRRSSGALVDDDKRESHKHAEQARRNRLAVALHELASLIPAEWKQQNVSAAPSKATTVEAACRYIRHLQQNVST

| Sequence | relative binding free energy |
| --- | --- |
| GAATTCACGTGGTGCT | 1.55 kJ/mol |
| TGGATCACGTGTTTAG | 0.92 kJ/mol |
| AAGAACACGTGTGTGG | -0.0418 kJ/mol |
| TTGATCACGTGTGTCA | 0.126 kJ/mol |
| TTATACACGTGGGGCT | -0.167 kJ/mol |
| AGTGTCACGTGTAAGC | 0.837 kJ/mol |
| CGGCGCACGTGGAAGG | -0.0418 kJ/mol |
| AGAGTCACGTGACGGG | 1.21 kJ/mol |
| CGTTTCACGTGTAAGG | 1.21 kJ/mol |
| CAAGTCACGTGTTTTA | 1.09 kJ/mol |
| TCCTACACGTGGGGGG | 0.209 kJ/mol |
| AGGGTCACGTGGGAGT | -0.418 kJ/mol |
| GTCATCACGTGATTGT | 1.3 kJ/mol |
| ATGGCCACGTGTCGGT | 0.0418 kJ/mol |
| ATGCTCACGTGTTGGG | 1.05 kJ/mol |
| TTATACACGTGGGTGT | -0.335 kJ/mol |
| CGGAACACGTGTGTTT | 0 kJ/mol |
| GTGGCCACGTGGAGTA | -0.46 kJ/mol |
| TGGTACACGTGTCTGT | 0.377 kJ/mol |
| TAGATCACGTGGTAAG | 0.544 kJ/mol |
| AAATTCACGTGTACTG | 1.63 kJ/mol |
| TTGCGCACGTGGGAAG | -0.962 kJ/mol |
| CAGGGCACGTGATGCG | 0.377 kJ/mol |

| Sequence | relative binding free energy |
| --- | --- |
| GAGTGCACGTGCATGT | 0 kJ/mol |
| GAGATCACGTGGGTTA | 0.586 kJ/mol |
| TGGTTCACGTGAGAGC | 1.59 kJ/mol |
| GTGGGCACGTGAACGC | 0.92 kJ/mol |
| CCTTGCACGTGGGAGG | -1 kJ/mol |
| GGACTCACGTGTTATG | 0.837 kJ/mol |
| GCGTACACGTGGTATT | 0.586 kJ/mol |
| TTACTCACGTGAGGTA | 1.46 kJ/mol |
| TGCGCCACGTGTTGGG | -0.46 kJ/mol |
| GAGGTCACGTGGGACG | 0.209 kJ/mol |
| GATTTCACGTGTTGCT | 1.05 kJ/mol |
| CTGGTCACGTGTGGTA | 0.544 kJ/mol |
| GTGGCCACGTGTTAGA | -0.251 kJ/mol |
| ATTGGCACGTGACGTA | -0.0837 kJ/mol |
| TATTGCACGTGAAGGG | 1.42 kJ/mol |
| GTAGCCACGTGTTTGA | 0.377 kJ/mol |
| GGGCGCACGTGTTCTG | -0.418 kJ/mol |
| GATTGCACGTGGTTAG | 0.0837 kJ/mol |
| CTGGGCACGTGGCTGG | -1.21 kJ/mol |
| AGGATCACGTGACGTG | 0.711 kJ/mol |
| AATGGCACGTGGGTAC | -0.46 kJ/mol |
| GAGGACACGTGGGGAG | -0.126 kJ/mol |
| AGTGGCACGTGGATAA | 0.209 kJ/mol |

| Sequence | relative binding free energy |
| --- | --- |
| CAGTCCACGTGGTTTG | 0.126 kJ/mol |
| GAGGGCACGTGGTCGT | -0.586 kJ/mol |
| ATGTACACGTGGTTAC | 0.586 kJ/mol |
| CTTTGCACGTGGGCTG | -1.51 kJ/mol |
| TCTCGCACGTGAGGGT | 0.879 kJ/mol |
| GTTATCACGTGATTTC | 1.55 kJ/mol |
| AAGTTCACGTGTTGAA | 1.05 kJ/mol |
| AAGGACACGTGTCGGT | 0.126 kJ/mol |
| TGGTGCACGTGACGAG | 0.92 kJ/mol |
| AGTAGCACGTGGGAAG | -0.293 kJ/mol |
| TGTAGCACGTGGCGGA | -0.335 kJ/mol |
| TGTTTCACGTGTCGTG | 0.753 kJ/mol |
| CTAGTCACGTGAGGGT | 0.879 kJ/mol |
| GTCTGCACGTGGAGTA | -0.209 kJ/mol |
| ATCGTCACGTGTCTTG | 0.544 kJ/mol |
| TTGCACACGTGTTGGA | -0.0418 kJ/mol |
| CGTGTCACGTGAGGTT | 0.586 kJ/mol |
| AAGTCCACGTGTGGGT | 0.209 kJ/mol |
| GGTTACACGTGATGCT | 0.544 kJ/mol |
| AGATGCACGTGTTGTC | 0.167 kJ/mol |
| TCGGTCACGTGGTGAT | 0.377 kJ/mol |
| TCTATCACGTGTACGT | 0.92 kJ/mol |
| ATGATCACGTGTTGAG | -0.0418 kJ/mol |

| Sequence | relative binding free energy |
| --- | --- |
| TTTAACACGTGCAGTT | -0.209 kJ/mol |
| ATGTGCACGTGAGTTA | 1.21 kJ/mol |
| CTTGTCACGTGTATAA | 0.795 kJ/mol |
| TGCGGCACGTGTTGAG | 0.0418 kJ/mol |
| AGGGGCACGTGGATTC | -0.209 kJ/mol |
| TTGATCACGTGGGGAT | 0.126 kJ/mol |
| TAGTGCACGTGGAGGA | -0.502 kJ/mol |
| TGTAGCACGTGCTGGG | -0.753 kJ/mol |
| GTTAGCACGTGGAGTT | -0.711 kJ/mol |
| CTGAACACGTGGGAGT | 0 kJ/mol |
| AGTTTCACGTGGCTTT | 1.3 kJ/mol |
| TGAATCACGTGACGTT | 1.63 kJ/mol |
| TGGTTCACGTGAGGAA | 1.97 kJ/mol |
| TTTGGCACGTGGATGC | -0.377 kJ/mol |
| CAGGGCACGTGGCGGG | -0.502 kJ/mol |
| GGTACCACGTGATTGG | 0.126 kJ/mol |
| AATCGCACGTGTATTG | 0.293 kJ/mol |
| TTTAGCACGTGAATTT | 1.13 kJ/mol |
| ATGGTCACGTGGTACT | -0.0837 kJ/mol |
| CTTGTCACGTGAGTAG | 1.09 kJ/mol |
| GGGGTCACGTGTGGAG | 0.962 kJ/mol |
| GTTGACACGTGAGTAA | 0.711 kJ/mol |
| TGTGTCACGTGAGCTA | 0.502 kJ/mol |

| Sequence | relative binding free energy |
| --- | --- |
| TGACGCACGTGGATGG | -0.628 kJ/mol |
| GTTGTCACGTGGGATG | 0.418 kJ/mol |
| TATTTCACGTGTGTGT | 1.55 kJ/mol |
| TTTTTCACGTGTTGCC | 1.59 kJ/mol |
| TGTTACACGTGGGAAT | 0.293 kJ/mol |
| AAGTGCACGTGGGGCT | -0.586 kJ/mol |
| CGGATCACGTGAGGAG | 1.55 kJ/mol |
| ATTTCCACGTGTCGTT | 0.711 kJ/mol |
| TGATTCACGTGAGGTG | 1.92 kJ/mol |
| GTAGTCACGTGGGGCG | 0.209 kJ/mol |
| TATGTCACGTGAATTG | 0.962 kJ/mol |
| AGTAGCACGTGGTCAT | -0.502 kJ/mol |
| CTAATCACGTGATGGG | 1 kJ/mol |
| GGCATCACGTGGGGTC | 0.167 kJ/mol |
| ATAGTCACGTGAGGGC | 1.42 kJ/mol |
| GAGGGCACGTGAGAGG | 1.26 kJ/mol |
| ATATACACGTGAATGT | 0.879 kJ/mol |
| GTAGTCACGTGTAGGT | 0.46 kJ/mol |
| CTTAGCACGTGGTTTT | -1.38 kJ/mol |
| CGTGGCACGTGTTGGA | 0.167 kJ/mol |
| ATTTGCACGTGTCGTC | 0.46 kJ/mol |
| ATCGGCACGTGTTGCT | -0.251 kJ/mol |
| CTTGTCACGTGTTATG | -0.418 kJ/mol |
